Results on 23 compounds are retold here after the antibiotic and cytotoxicity screens of Wong et al. (2023).

The list shows a part of the results.

One assay relates to HSkMC. Nature of the assay: cytotoxicity call (relative viability < 0.9). The following applies: 10 µM.
The test system of a further assay is HepG2. Nature of the assay: cytotoxicity call (relative viability < 0.9). The conditions noted are these: 10 µM.
The test system of the next assay is S. aureus RN4220. Nature of the assay: growth inhibition call (relative growth <= 0.2). The conditions noted are these: 50 µM.

With `N=C(N=C(N)N)N1N=CC[C@@H]1c1ccccc1`, the cytotoxicity call in the assay with HSkMC and with HepG2 was “inactive” each time. For the same compound, the growth inhibition call in the assay on S. aureus RN4220 was “inactive”.

On to `O=C(C[C@@H]1C[C@H]2c3cc(NS(=O)(=O)c4ccc(F)cc4)ccc3O[C@H]2[C@@H](CO)O1)NCc1ccccc1`, for which the cytotoxicity call with HSkMC and in the assay with HepG2 was “inactive” each time. Also, the growth inhibition call in the assay on S. aureus RN4220 was “inactive”.

With `Cc1ccc(S(=O)(=O)Nc2ccc3c(c2)CC(=O)N([C@@H](C)CO)C[C@@H](C)[C@H](CN(C)CC2CC2)O3)cc1`, the cytotoxicity call with HSkMC and in the assay with HepG2 was “inactive” in each case. For the same compound, the growth inhibition call in the assay on S. aureus RN4220 is “inactive”.

Regarding `C[C@H](CO)N1C[C@H](C)[C@H](CN(C)Cc2ccncc2)OCCCC[C@H](C)Oc2ccc(NC(=O)Nc3ccc(F)cc3)cc2C1=O`, the cytotoxicity call in the assay on HSkMC and in the assay on HepG2 was “inactive” in each case. In addition, in the assay with S. aureus RN4220, the growth inhibition call is “inactive”.

For the compound `C[C@H]1CN([C@@H](C)CO)C(=O)c2c(c3ccccc3n2C)-c2ccccc2CO[C@H]1CN(C)C(=O)Nc1cccc(F)c1`, the cytotoxicity call with HSkMC and in the assay with HepG2 was “inactive” each time. Further, the growth inhibition call in the assay with S. aureus RN4220 was “inactive”.

Turning to `C[C@@H]1CCCCO[C@H](CN(C)C(=O)Nc2ccc3c(c2)OCO3)[C@@H](C)CN([C@H](C)CO)C(=O)c2cc(NS(=O)(=O)c3ccccc3)ccc2O1`, the cytotoxicity call with HSkMC and in the assay with HepG2 was “inactive” throughout. The growth inhibition call in the assay with S. aureus RN4220 is “inactive”.

For `C[C@H](CO)N1C[C@H](C)[C@@H](CN(C)C(=O)c2ccncc2)Oc2cc(C#Cc3ccncc3)ccc2S1(=O)=O`, in the assay on HSkMC, the cytotoxicity call was “inactive”. In addition, the cytotoxicity call in the assay on HepG2 is “active”. Besides, the growth inhibition call in the assay on S. aureus RN4220 was “inactive”.

As to `C[C@@H]1CN([C@@H](C)CO)C(=O)c2cc(NC(=O)Nc3cccc4ccccc34)ccc2O[C@@H]1CN(C)S(=O)(=O)c1cccs1`, the cytotoxicity call with HSkMC and with HepG2 was “inactive” in each case. In addition, the growth inhibition call in the assay with S. aureus RN4220 is “inactive”.

For the compound `C[C@H](CO)N1C[C@H](C)[C@@H](CN(C)S(=O)(=O)c2ccccc2)Oc2cc(Br)ccc2S1(=O)=O`, the cytotoxicity call in the assay on HSkMC and with HepG2 was “inactive” throughout. In addition, the growth inhibition call in the assay on S. aureus RN4220 is “inactive”.

In the case of `COc1cccc(NC(=S)NN)c1`, the cytotoxicity call with HSkMC and with HepG2 was “inactive” in each case. Besides, in the assay with S. aureus RN4220, the growth inhibition call is “inactive”.

Consider `CN(C)CC(=O)N1CCO[C@]2(COCCN(c3cncnc3)C2)C1`, for which the cytotoxicity call in the assay with HSkMC and in the assay with HepG2 was “inactive” each time. In addition, the growth inhibition call with S. aureus RN4220 was “inactive”.

For the compound `Cc1ccc(S(=O)(=O)Nc2ccc3c(c2)CC(=O)N([C@@H](C)CO)C[C@@H](C)[C@@H](CN(C)S(C)(=O)=O)O3)cc1`, the cytotoxicity call with HSkMC and in the assay on HepG2 was “inactive” throughout. Besides, the growth inhibition call in the assay on S. aureus RN4220 is “inactive”.

Take `Cc1c(N)nc([C@H](CC(N)=O)NC[C@H](N)C(N)=O)nc1C(=O)N[C@H](C(=O)N[C@H](C)[C@@H](O)[C@H](C)C(=O)N[C@H](C(=O)NCCc1nc(-c2nc(C(=O)NCCCNCCCCN)cs2)cs1)[C@@H](C)O)[C@@H](O[C@@H]1O[C@@H](CO)[C@@H](O)[C@H](O)[C@@H]1O[C@@H]1O[C@H](CO)[C@@H](O)[C@H](OC(N)=O)[C@@H]1O)c1c[nH]cn1`: the cytotoxicity call with HSkMC was “active”. The cytotoxicity call in the assay on HepG2 is “inactive”. Moreover, in the assay with S. aureus RN4220, the growth inhibition call is “active”.

Turning to `CC(C)(C)[S@](=O)N1Cc2cc(C(=O)NCCc3ccncc3)nc(-c3cccc(-c4ccc(C#N)cc4)c3)c2[C@@H]1CCO`, the cytotoxicity call in the assay with HSkMC and in the assay with HepG2 was “inactive” throughout. For the same compound, the growth inhibition call in the assay with S. aureus RN4220 is “inactive”.

With `COc1ccc(NC(=O)N(C)C[C@H]2Oc3ccc(NC(=O)CCN4CCOCC4)cc3C(=O)N([C@@H](C)CO)C[C@H]2C)cc1`, the cytotoxicity call with HSkMC and in the assay with HepG2 was “inactive” each time. In addition, the growth inhibition call in the assay on S. aureus RN4220 is “inactive”.

Consider `Cc1ccc(S(=O)(=O)N(C)C[C@@H]2Oc3c(NC(=O)C4CC4)cccc3C(=O)N([C@@H](C)CO)C[C@@H]2C)cc1`, for which the cytotoxicity call in the assay on HSkMC and in the assay on HepG2 was “inactive” throughout. The growth inhibition call in the assay with S. aureus RN4220 was “inactive”.

Turning to `C/C=C/c1ccc2c(c1)O[C@@H](CN(C)Cc1ccc(C(=O)O)cc1)[C@@H](C)CN([C@@H](C)CO)S2(=O)=O`, the cytotoxicity call with HSkMC and with HepG2 was “inactive” throughout. Further, the growth inhibition call with S. aureus RN4220 was “inactive”.

Regarding `C[C@@H]1CCCCO[C@H](CN(C)C(=O)Nc2ccc3c(c2)OCO3)[C@H](C)CN([C@@H](C)CO)C(=O)c2cc(NS(=O)(=O)c3ccc(F)cc3)ccc2O1`, the cytotoxicity call with HSkMC and with HepG2 was “inactive” each time. The growth inhibition call with S. aureus RN4220 was “inactive”.

Take `C[C@H]1CCCCO[C@@H](CN(C)C(=O)Nc2ccc3c(c2)OCO3)[C@@H](C)CN([C@@H](C)CO)C(=O)c2cc(NC(=O)c3ccncc3)ccc2O1`: the cytotoxicity call with HSkMC and with HepG2 was “inactive” each time. The growth inhibition call in the assay on S. aureus RN4220 was “inactive”.

`C[C@@H]1CCCCO[C@@H](CN(C)C(=O)Nc2ccccc2)[C@H](C)CN([C@H](C)CO)C(=O)c2cc(NS(=O)(=O)c3ccc(Cl)cc3)ccc2O1`: the cytotoxicity call in the assay on HSkMC and in the assay with HepG2 was “inactive” in each case. Moreover, in the assay with S. aureus RN4220, the growth inhibition call was “inactive”.

Take `Cc1ccc(S(=O)(=O)N(C)C[C@@H]2Oc3ccc(NC(=O)c4ccncc4)cc3C(=O)N([C@@H](C)CO)C[C@H]2C)cc1`: the cytotoxicity call in the assay on HSkMC (human skeletal muscle cells) and in the assay on HepG2 was “inactive” each time. Moreover, the growth inhibition call in the assay on S. aureus RN4220 is “inactive”.

`C[C@@H]1CCCCO[C@@H](CN(C)Cc2ccc3c(c2)OCO3)[C@@H](C)CN([C@H](C)CO)C(=O)c2cc(NC(=O)CCCCCC(=O)Nc3ccccc3N)ccc2O1`: the cytotoxicity call in the assay with HSkMC and with HepG2 was “inactive” in each case. The growth inhibition call with S. aureus RN4220 was “inactive”.

For `C[N+](C)(C)CCOP(=O)([O-])OP(=O)(O)OCC1OC(n2ccc(N)nc2=O)C(O)C1O` (centres undefined), the cytotoxicity call with HSkMC and in the assay with HepG2 was “inactive” in each case. In the assay with S. aureus RN4220, the growth inhibition call was “inactive”.
